Data as given in PubChem BioAssay AID1963576 (National Center for Advancing Translational Sciences (NCATS), 2024).
The whole screen tested about 46,000 compounds, of which about 60 (0.1%) were called active. About 3% were inconclusive and are not listed. Calls follow the shape of the dose curve; as a rule, active = well fitted inhibition curve with a large enough effect; inconclusive = small, poorly fitted or top-dose-only effect; inactive = no such curve, though single readings can be large or run the other way. The list shows a part of the results.

Test: Primary qHTS assay for Inhibitors of ovarian cancer metastasis using an organotypic tumor microenvironment (TME) model. Also: nearly all actives have a fitted effect of over 65% in size.
Conditions: SKOV3ip1-GFP adhesion/invasion on 3D omental model, fluorescence; series mostly up to 45.8 µM; activity change, negative = inhibition: at the top concentration
Excerpt: PI: Ernst Lengyel MD., Ph.D. Department of Obstetrics and Gynecology, Section of Gynecologic Oncology University of Chicago Medicine, Chicago, Illinois. The tumor microenvironment (TME) is a key determinant of metastatic efficiency. We performed a quantitative high-throughput screen (qHTS) of diverse medicinal chemistry tractable scaffolds (44,420 compounds) and pharmacologically active small molecules (386 compounds) using a layered organotypic, robust assay representing the ovarian cancer metastatic TME. This 3D model contains primary human mesothelial cells, fibroblasts, and extracellular matrix, to which fluorescently labeled ovarian cancer cells are added. Initially, 100 compounds inhibiting ovarian cancer adhesion/invasion to the 3D model in a dose-dependent manner were identified. Of those, eight compounds were confirmed active in five high-grade serous ovarian cancer cell lines and were further validated in secondary in vitro and in vivo biological assays. […] Specifically, NCGC00117362 and PP-121 inhibited ovarian cancer adhesion, invasion, and proliferation, whereas milciclib inhibited ovarian cancer invasion and proliferation. […] To evaluate the clinical potential of NCGC00117362, structure - activity relationship studies were performed. […] The three compounds identified have promise as therapeutics for prevention and treatment of ovarian cancer metastasis.
PROTOCOL TABLE (as described by Inglese J, Shamu CE and Guy RK. 2007) SEQUENCE No. (e.g., 1, 2, 3, etc.); […] (e.g., Cells, Incubation, Reagent, etc.); VALUE; DESCRIPTION. 1; Cells; 4 uL; primary human omental fibroblast, black, clear bottom, low base, 1536-well Aurora assay plate. 2; Incubation; 48 hr; 37C. 3; Cells; 3 uL; 1,200 SKOV3ip1-GFP cells. 4; Compounds; 23nL; acoustic dispenser. 5; Incubation; 2 hr; room temperature. 6; Incubation; 16 hr; 37C. 7; Wash; 5 uL; 1x PBS. 8; Fixing; 5 uL; 4% paraformaldehyde (PFA). 9; Incubation; 15 min; room temperature 10; Wash, 5 uL; 1x PBS. 11; Detection; Fluorescence, excitation filter 488 nm, emission filter 509 nm. NOTES (numbers refer to Sequence numbers above) 1. For the 1,536-well format, 40 primary human omental fibroblasts and 400 mesothelial cells were seeded with 0.02 µg fibronectin and 0.02 µg collagen type I in 4 µL of growth media (2.3 mm2; Supplementary Fig. S1A). 2. Assay plates were incubated for 48 hours at 37 C. 3. After incubation, 1,200 SKOV3ip1-GFP were seeded in 3 µL of serum-free media (growth media minus FBS) on top of primary human omental cells. 4. Compounds or controls were added to each well immediately after the addition of the cancer cells. Compounds were screened in four doses (0.36-46 µmol/L), and the plates contained the positive control (Tomatine) in eight doses (0.035-75 µmol/L) and DMSO (equal volume controls) 5 - 6. The plates were incubated at room temperature for 2 hours and then at 37 degrees C for 16 hours. 7 - 10. Following incubation, the media were aspirated and each well washed with PBS (5 µL) and then fixed with 4% paraformaldehyde (PFA; 5 µL). After 15 minutes, the PFA solution was aspirated, PBS (5 µL) was added. 11. The number of GFP-labeled cells analyzed using a fluorescent cytometer TTP LabTech Acumen eX3 using 488 nm excitation filter and 509 nm emission filter. Data was normalized to the DMSO treated for negative and Tomatine treated wells for positive control. REFERENCES: Inglese J, Shamu CE and Guy RK, Reporting data from high throughput screening of small molecule libraries, Nature Chemical Biology, 2007, 3(8): 438-441. doi.org/10.1038/nchembio0807-438. Yasgar A, Shinn P, Jadhav A, Auld DS, Michael S, Zheng W, Austin CP, Inglese J and Simeonov A, Compound Management for Quantitative High-Throughput Screening. J. Assoc. Lab. Auto., 2008, 13: 79-89. doi: 10.1016/j.jala.2007.12.004.

Activity change, negative = inhibition, inactive:
CC(=O)N1CCCc2cc(S(=O)(=O)N(C)CC(=O)Nc3ccc(C(C)C)cc3)ccc21 3.8%
COc1ccc(CNC(=O)CCC2N=C3c4ccccc4N=C(SCC(=O)NCCc4ccc(OC)c(OC)c4)N3C2=O)cc1 (configuration not stated) 18.4%
COc1cccc(CNC(=O)c2sc3nc[nH]c(=O)c3c2C)c1 0.391%
CC(C)OC(=O)c1c(NC(=O)c2cccc(C(F)(F)F)c2)sc2c1CCCC2 -2.78%
COc1ccc(C2Nc3ccccc3-c3cc(C)nn32)c(OC)c1 (configuration not stated) 2.39%
CCOc1ccc(NC(=O)c2cc(-c3ccc(C)c(F)c3)on2)c([N+](=O)[O-])c1 11.3%
Cc1cccc(C)c1OCCn1c(CCNC(=O)C2CCCCC2)nc2ccccc21 -10.4%
COc1cccc(N2CCN(C(=O)c3cnc4c(-c5ccc(F)cc5)c(C)nn4c3C)CC2)c1 -4.28%
CN[C@H]1[C@@H](O[C@@H]2[C@H](O[C@@H]3[C@@H](O)[C@@H](O)[C@@H](N=C(N)N)[C@@H](O)[C@@H]3N=C(N)N)O[C@H](C)[C@@]2(O)C=O)O[C@@H](CO)[C@@H](O)[C@H]1O -0.881% [at 15.1 µM]
COc1ccccc1CNC(=O)C(=O)NCC(c1ccco1)S(=O)(=O)c1ccc(F)cc1 (configuration not stated) 1.95%
COc1ccc(C)c2sc(NC(=O)c3ccc(S(=O)(=O)N4CCOCC4)cc3)nc12 1.55%
CC1=C(C(=O)Nc2cc3cn[nH]c3cc2F)C(c2ccc(Cl)cc2F)N=C(c2ccnc(Cl)c2)N1 (configuration not stated) 16.7%
CC(C)(C)c1ccc(C(=O)NCC(c2ccco2)S(=O)(=O)c2ccccc2)cc1 (configuration not stated) 0.328%
COC(=O)c1ccccc1NS(=O)(=O)c1cc2c3c(c1)CC(=O)N3CCC2 -9.54%
Cc1ccc(-n2nc(C)c3c(C(=O)Nc4ccccc4C(F)(F)F)cc(C)nc32)cc1 1.19%
Cc1ccc2c(c1)C(c1ccccc1)N(C(=O)COc1ccc(Cl)cc1Cl)CC(=O)N2 (configuration not stated) 2.22%
CC1=C(C(=O)Nc2ccccc2)C(c2ccccn2)n2nc(SCc3ccccc3)nc2N1 (configuration not stated) -2.6%
CCOc1ccc2nc(N(Cc3cccnc3)C(=O)c3cccs3)sc2c1 5.72%
COc1cccc(C(=O)Nc2nc(-c3nnn(-c4ccccc4C(F)(F)F)c3C)ns2)c1 -16%
Cc1c(Cl)ccc2sc(N3CCN(C(=O)CCS(=O)(=O)c4ccc(F)cc4)CC3)nc12 -4.57%
CCCCCOc1ccc(NC(=O)Cn2c(-c3nonc3N)nc3ccccc32)cc1 7.05%
COc1ccc(-c2nc3ccccc3n2Cc2ccccc2)cc1 0.94%
CCSc1nc(-c2cccc(Cl)c2)nc2c1Cc1c(CO)cnc(C)c1O2 7.98%
COc1cccc(CNC(=O)Cn2nc(C)n3c(cc4cc(C)ccc43)c2=O)c1OC -1.07%
CCCCN1C(=O)C(O)(CC(=O)c2ccc(CC)cc2)c2cc(Br)ccc21 (configuration not stated) -0.622%
Cc1ccc(Nc2c(-c3cccnc3)nc3ccc(C)cn23)cc1 -1.82%
Cc1cc(C)c(NC(=O)CSc2nc(=O)n(Cc3ccncc3)c3c2CCC3)c(C)c1 2.23%
CCOCCCNC(=O)C(c1ccc(C)cc1)N(Cc1ccc2c(c1)OCO2)C(=O)c1ccccc1O (configuration not stated) 4.63%
O=C(CSc1nnc2scc(-c3ccc(Cl)cc3)n12)Nc1ccc(F)cc1 -7.8%
Cc1ccc(NC(=O)n2ncc3c(C)cccc32)c(C)c1 -0.431%
CCOC(=O)N1CCc2c(sc(NCc3cc(OC)ccc3OC)c2C(=O)Nc2cc(OC)ccc2OC)C1 -17.8%
O=C(NC1CCCCC1)c1ccc(CSc2nc3ccncc3n2Cc2cccc(F)c2)cc1 -2.37%
CCc1ccc(CNC(=O)c2ccc3c(c2)c(C)c(C)n3Cc2ccccc2)cc1 -1.78%
O=C(CSc1nc2c([nH]c3ccccc32)c(=O)n1-c1ccccc1)Nc1cccc(C(F)(F)F)c1 3.39%
Cc1ccc(NC(=O)CCn2cccn2)c(C)c1 2.22%
Cc1ccc(Cn2c(=O)n(CCc3ccccc3)c(=O)c3sc4ccccc4c32)cc1 -4%
COc1ccc(N2CCN(C(=O)Cn3cnc4sc(C)c(S(=O)(=O)N5CCCCC5)c4c3=O)CC2)cc1 -4.46%
COC(=O)c1cc(-c2ccc(Cl)cc2)c2c(=O)[nH]c(=O)n(C)c2n1 3.5%
CCOCCCNC(=O)C1CCN(c2nc3ccc(C)cc3[nH]2)CC1 20%
C=CCc1ccc(O)c(-c2ccc(O)c(CC=C)c2)c1 18.1%
COc1cc([C@@H]2c3cc4c(cc3[C@H](O)[C@H]3COC(=O)[C@H]23)OCO4)cc(OC)c1OC 35.6%
CC1CCCCN1Cc1nc2c(c(=O)n(C)c(=O)n2C)n1Cc1ccc(Br)cc1 (configuration not stated) -3.08%
Cc1ccc(NC(=O)CCn2nc(C)c3c(C)n(-c4ccccc4)nc3c2=O)cc1Cl -3.5%
COc1cccc(NC(=O)CSc2cc(C)c3ccccc3n2)c1 -2.87%
COc1ccccc1-c1nc(CNC(=O)NC2CCCCC2)c(C)o1 -11.8%
CCCOc1ccc(NC(=O)CC2C(=O)N(c3cccc(OC)c3)C(=O)N2CCc2ccncc2)cc1 (configuration not stated) 8.59%
CC(C)c1ccc(NC(=O)c2cn(C3CCCC3)c(=O)c3c2c2ccccc2n3C)cc1 -2.27%
CC(C)C[C@H](NC(=O)[C@@H](O)[C@H](N)Cc1ccccc1)C(=O)O 0.794%
Cc1cc(C)cc(C(=O)Nc2ccc(-c3nc4ncccc4o3)cc2)c1 -5.6%
CCN1CCSc2ccc(C(=O)NC(C)c3ccccc3)cc21 (configuration not stated) -23.1%
O=C(NCc1ccc(Cl)cc1)c1cc(S(=O)(=O)N2CCCCC2)c[nH]1 9.41%
Cc1c2cnn(CC(=O)N3CCN(c4ccc(F)cc4)CC3)c(=O)c2c(C)n1Cc1ccc(F)cc1 -8.27%
Cc1nn(CCCC(=O)NCc2ccc(F)cc2)c(=O)c2c1sc1ccccc12 -1.27%
CCOc1ccc(N2CC(c3nc4ccccc4n3Cc3cccc(Cl)c3)CC2=O)cc1 (configuration not stated) 4.12%
Cc1ccc(-n2ncc(C(=O)N3CCN(c4cccc(C)c4)C(C)C3)c2C2CCN(C(=O)OC(C)(C)C)CC2)cc1 (configuration not stated) 4.15%
Cc1ccc(CNC(=O)Cn2nc(C)n3cccc3c2=O)cc1 -21.7%
Cc1c(NC(=O)c2cc(-c3ccc(Cl)c(Cl)c3)on2)c(=O)n(-c2ccccc2)n1C 2.27%
CCOC(=O)c1cc(-c2ccccc2)n(-c2cccc(C(=O)Nc3ccc(F)c(F)c3)c2)c1C 2.8%
COc1c(C)cc(S(=O)(=O)NCCc2c(C)[nH]c3ccccc23)c(C)c1C 8.76%
Cc1ccc(NC(=O)Nc2nnc(N(CC(C)C)CC(C)C)s2)cc1Cl -3.86%
COc1ccc(N2CCN(C(=O)CCc3c(C)nn(-c4ccc(N5CCCC5)nn4)c3C)CC2)cc1 -0.334%
Cc1ccc(NC(=O)c2cnn3c(C(F)F)cc(-c4ccccc4)nc23)c(C)c1 27.6%
COc1ccc(OC)c(NC(=O)C2CCCN(S(=O)(=O)c3c(C)nn(C)c3C)C2)c1 (configuration not stated) -17%
CCOC(=O)c1ccc(NC(=O)CCCc2nc(-c3ccccc3Cl)no2)cc1 1.33%
CCOc1ccc(-c2cc(NC(=O)Nc3cccc(C(C)=O)c3)c(C(=O)OC)s2)cc1 -16.2%
CCOc1ccc(S(=O)(=O)NCC(c2ccco2)S(=O)(=O)c2cccs2)cc1 (configuration not stated) -1.32%
COc1ccc(NC(=O)C2=C(C)Nc3ncnn3C2c2ccc(O)cc2)cc1 (configuration not stated) -27.6%
O=C(O)c1ccc2c(c1)ncn2-c1ccc(F)c(F)c1 -7.07%
CCOC(=O)CSc1nc2ccc(NC(=O)c3ccc(C)cc3)cc2s1 -5.85%
CCc1ccc(CNC(=O)Cc2ccc(NC(=O)N3CCSc4ncccc43)cc2)cc1 7.07%
CCOc1ccc(-c2nonc2NC(=O)c2oc3cc(C)ccc3c2C)cc1 -4.79%
CCCCSCCCNC(=O)CN1C(=O)c2cccnc2Oc2ccc(Cl)cc21 -13.5%
Cc1ccc(C)c(NC(=O)c2ccc3c(O)c(S(=O)(=O)c4ccc(Cl)cc4)c(=O)[nH]c3c2)c1 -8.18%

outcome, inactive:
COc1ccc(NC(=O)Cn2ccn(-c3ccc(F)c(F)c3)c(=O)c2=O)cc1Cl
O=C1CC(c2ccccc2)Sc2ccccc2N1Cc1ccccc1F (configuration not stated)
COc1ccc(C(=O)Oc2c(Sc3ccccc3)c(C)nn2-c2ccccc2)c(OC)c1
CCN(CC)S(=O)(=O)c1ccc2c(c1)N(CC(=O)Nc1ccc(Cl)cc1)C(=O)C1CCCN21 (configuration not stated)
COc1cccc(-c2nc(Cn3c(=O)cc(C)c4c(C)nn(-c5ccccc5)c43)c(C)o2)c1OC
CCCN(C(=O)c1cc2c(=O)oc3ccc(C)cc3c2s1)c1ccc(OCC)cc1
CCc1nn(CC(=O)N2CCN(c3cccc(C)c3)C(C)C2)c(=O)c2cc3sccc3n12 (configuration not stated)
COc1ccccc1C(=O)NC1(C(F)(F)F)NC(=O)N(CCc2ccccc2)C1=O (configuration not stated)
Cc1ccc(N(C)C(=O)Cn2ncc3c([nH]c4ccccc43)c2=O)cc1C
COc1ccc(NC(=O)CCc2c(C)nn(-c3ccc(N4CCCC4)nn3)c2C)cc1Cl
COCCn1c(C)cc(O)c(C(c2ccccc2)N2CCN(c3ccccc3F)CC2)c1=O (configuration not stated)
O=C(CSc1cn(CCNC(=O)c2ccccc2F)c2ccccc12)Nc1ccc2c(c1)OCCO2
CCS(=O)(=O)c1ccc(C(=O)N2CCN(c3nc4c(OC)ccc(C)c4s3)CC2)cc1
CC(Nc1ccc(-c2nc(-c3cccnc3)no2)cc1[N+](=O)[O-])c1ccccc1 (configuration not stated)
COc1ccc(NC(=O)c2c(-c3ccc(C)cc3)nnc3ccccc23)cc1OC
O=C(Cn1ncc2ccsc2c1=O)N1CCN(c2ccc(Cl)cc2)CC1
CCOc1ccc2nc(NC(=O)c3cc(=O)c4ccc(C)cc4o3)sc2c1
COc1ccccc1CNC(=O)CCn1c(=O)c2ccccc2n(CC(=O)Nc2cccc(Cl)c2)c1=O
COc1cccc(N2CCN(C(=O)C(CCSC)NS(=O)(=O)c3ccc4c(c3)oc(=O)n4C)CC2)c1 (configuration not stated)
